Assay results from a collection of fitness landscapes (doi:10.1016/j.celrep.2020.107928).
Whole data set: some 81,000 sequences, median “one-hybrid fitness for binding parS DNA” near -0.17, cut for the highest 2% near 0.51. The list shows a part of the results.

B1: Caulobacter ParB omega fusion; a variant is named by its letters at X, in order, B8GW30 (parent)
chain: MESVVVGEPGMSEGRRGLGRGLSALLGEVDAAPAQAPGEQLGGSREAPIEILQRNPDQPRRTFREEDLEDLSNSIREKGVLQPILVRPSPDTAGEYQIVAGERAWRAAQRAGLKTVPIMVRELDDLAVLEIGIIENVQRADLNVLEEALSYKVLMEKFERTQENIAQTIGKSXSHVANXMRLLXLPDEVQSYLVSGELTAXHARAIAAAADPVALAKQIIEGGLSVRETEALARKAPNLSAGKSKGGRPPRVKDTDTQALESDLSSVLGLDVSIDHRGSTGTLTITYATLEQLDDLCNRLTRGI

Variants of: B1
Assay: one-hybrid fitness for binding parS DNA (scaled: cognate 1, non-cognate 0); higher = stronger binding
Details: with parS DNA site
How it was run: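 On M9-minus-histidine containing 0.1 mM IPTG and 5 mM 3-AT, E. coli USO cells with a HIS3 reporter, site 19 bp from the promoter, grew 48 hours at 37°C to select Caulobacter ParB libraries randomised at four specificity codons. Plasmids from before and after were Illumina-sequenced, with three replicate libraries pooled and variants under 10 reads left out. Fitness is the log change in variant-to-wild-type read ratio, rescaled against cognate and non-cognate.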
With RLRI the “one-hybrid fitness for binding parS DNA” value was no more than 0.2.
In the case of TKFP, the “one-hybrid fitness for binding parS DNA” value is reported as no more than 0.2.
TTGV was tested, and the “one-hybrid fitness for binding parS DNA” value was no more than 0.2.
For TQQC, the “one-hybrid fitness for binding parS DNA” value was no more than 0.2.
WDPG was tested, and the “one-hybrid fitness for binding parS DNA” value was no more than 0.2.
With RYFP the “one-hybrid fitness for binding parS DNA” value was no more than 0.2.
With TLNI the “one-hybrid fitness for binding parS DNA” value was no more than 0.2.
QHHH was tested, and the “one-hybrid fitness for binding parS DNA” value was no more than 0.2.
With PWNL the “one-hybrid fitness for binding parS DNA” value was no more than 0.2.
In the case of RKPK, the “one-hybrid fitness for binding parS DNA” value is reported as no more than 0.2.
With CPNV the “one-hybrid fitness for binding parS DNA” value was no more than 0.2.
HPIT was tested, and the “one-hybrid fitness for binding parS DNA” value was no more than 0.2.
With NEAF the “one-hybrid fitness for binding parS DNA” value was no more than 0.2.
In the case of RLTP, the “one-hybrid fitness for binding parS DNA” value is reported as no more than 0.2.
VTRI was tested, and the “one-hybrid fitness for binding parS DNA” value was no more than 0.2.
In the case of VMYS, the “one-hybrid fitness for binding parS DNA” value is reported as no more than 0.2.
In the case of QYHP, the “one-hybrid fitness for binding parS DNA” value is reported as no more than 0.2.
For VSLG, the “one-hybrid fitness for binding parS DNA” value was no more than 0.2.
In the case of QDAA, the “one-hybrid fitness for binding parS DNA” value is reported as no more than 0.2.
With QQEI the “one-hybrid fitness for binding parS DNA” value was no more than 0.2.
For QRFT, the “one-hybrid fitness for binding parS DNA” value was no more than 0.2.
For VLPM, the “one-hybrid fitness for binding parS DNA” value was no more than 0.2.
With GFMG the “one-hybrid fitness for binding parS DNA” value was no more than 0.2.
NEHC was tested, and the “one-hybrid fitness for binding parS DNA” value was no more than 0.2.
PSCM was tested, and the “one-hybrid fitness for binding parS DNA” value was no more than 0.2.
In the case of WKFS, the “one-hybrid fitness for binding parS DNA” value is reported as no more than 0.2.
With RGSI the “one-hybrid fitness for binding parS DNA” value was no more than 0.2.
With WHTG the “one-hybrid fitness for binding parS DNA” value was no more than 0.2.
With QVDH the “one-hybrid fitness for binding parS DNA” value was no more than 0.2.
For TECS, the “one-hybrid fitness for binding parS DNA” value was no more than 0.2.
KNYY was tested, and the “one-hybrid fitness for binding parS DNA” value was no more than 0.2.
With HNEW the “one-hybrid fitness for binding parS DNA” value was no more than 0.2.
GTTR was tested, and the “one-hybrid fitness for binding parS DNA” value was no more than 0.2.
For PDDT, the “one-hybrid fitness for binding parS DNA” value was no more than 0.2.
For AAHK, the “one-hybrid fitness for binding parS DNA” value was no more than 0.2.
With NWHW the “one-hybrid fitness for binding parS DNA” value was no more than 0.2.
In the case of GVPH, the “one-hybrid fitness for binding parS DNA” value is reported as no more than 0.2.
For FSDD, the “one-hybrid fitness for binding parS DNA” value was no more than 0.2.
ENRN was tested, and the “one-hybrid fitness for binding parS DNA” value was no more than 0.2.
For NGKT, the “one-hybrid fitness for binding parS DNA” value was no more than 0.2.
PTVA was tested, and the “one-hybrid fitness for binding parS DNA” value was no more than 0.2.
In the case of PVSS, the “one-hybrid fitness for binding parS DNA” value is reported as no more than 0.2.
For TCLA, the “one-hybrid fitness for binding parS DNA” value was no more than 0.2.
In the case of TMNE, the “one-hybrid fitness for binding parS DNA” value is reported as no more than 0.2.
For RHSY, the “one-hybrid fitness for binding parS DNA” value was 0.41.
With VYQY the “one-hybrid fitness for binding parS DNA” value was no more than 0.2.
In the case of IYHM, the “one-hybrid fitness for binding parS DNA” value is reported as no more than 0.2.
For WIKG, the “one-hybrid fitness for binding parS DNA” value was no more than 0.2.
For PVYY, the “one-hybrid fitness for binding parS DNA” value was no more than 0.2.
In the case of LKGE, the “one-hybrid fitness for binding parS DNA” value is reported as no more than 0.2.
DNLC was tested, and the “one-hybrid fitness for binding parS DNA” value was no more than 0.2.
With SGGC the “one-hybrid fitness for binding parS DNA” value was no more than 0.2.
VDGI was tested, and the “one-hybrid fitness for binding parS DNA” value was no more than 0.2.
With RGKH the “one-hybrid fitness for binding parS DNA” value was no more than 0.2.
With GRSR the “one-hybrid fitness for binding parS DNA” value was no more than 0.2.
In the case of FRTE, the “one-hybrid fitness for binding parS DNA” value is reported as no more than 0.2.
RYRV was tested, and the “one-hybrid fitness for binding parS DNA” value was no more than 0.2.
With EFAG the “one-hybrid fitness for binding parS DNA” value was no more than 0.2.
With DRRC the “one-hybrid fitness for binding parS DNA” value was no more than 0.2.
WWQF was tested, and the “one-hybrid fitness for binding parS DNA” value was no more than 0.2.
For IETR, the “one-hybrid fitness for binding parS DNA” value was no more than 0.2.
In the case of VINL, the “one-hybrid fitness for binding parS DNA” value is reported as no more than 0.2.
For LYLT, the “one-hybrid fitness for binding parS DNA” value was no more than 0.2.
LSTS was tested, and the “one-hybrid fitness for binding parS DNA” value was no more than 0.2.
VTLI was tested, and the “one-hybrid fitness for binding parS DNA” value was no more than 0.2.
For RTMG, the “one-hybrid fitness for binding parS DNA” value was 1.
HCYC was tested, and the “one-hybrid fitness for binding parS DNA” value was no more than 0.2.
In the case of PRRY, the “one-hybrid fitness for binding parS DNA” value is reported as no more than 0.2.
For NLSS, the “one-hybrid fitness for binding parS DNA” value was no more than 0.2.
For QKQT, the “one-hybrid fitness for binding parS DNA” value was no more than 0.2.
With PVEV the “one-hybrid fitness for binding parS DNA” value was no more than 0.2.
In the case of TKDF, the “one-hybrid fitness for binding parS DNA” value is reported as no more than 0.2.
For TASH, the “one-hybrid fitness for binding parS DNA” value was 0.232.
In the case of AAYY, the “one-hybrid fitness for binding parS DNA” value is reported as no more than 0.2.
With QAQQ the “one-hybrid fitness for binding parS DNA” value was no more than 0.2.
QHNA was tested, and the “one-hybrid fitness for binding parS DNA” value was no more than 0.2.
ATKS was tested, and the “one-hybrid fitness for binding parS DNA” value was no more than 0.2.
In the case of DNTV, the “one-hybrid fitness for binding parS DNA” value is reported as no more than 0.2.
For ITCC, the “one-hybrid fitness for binding parS DNA” value was no more than 0.2.
With CYHL the “one-hybrid fitness for binding parS DNA” value was no more than 0.2.
With VCRT the “one-hybrid fitness for binding parS DNA” value was no more than 0.2.
For YWNS, the “one-hybrid fitness for binding parS DNA” value was no more than 0.2.
With GITR the “one-hybrid fitness for binding parS DNA” value was no more than 0.2.
With SVRT the “one-hybrid fitness for binding parS DNA” value was no more than 0.2.
